In PMC1874614 (Nucleic Acids Research, 2007):

Biological target: the molecule itself

B1: human TRAPP subunit Mum2, His-tagged (natural protein)
chain: not shown
stoichiometry N: 2
